From the RNAGym collection of RNA variant scans (doi:10.7554/elife.90254)
The source gives no read counts; variants with many changes may rest on few reads.

B1: LINE1-full (parent)
chain: UACGUAGGUGGUUUUCCCCUGAUAGUGCUAAGGGGGCCUGGAAGUUUGGACUGGGCAGAGCUCAACACAGCGUGGCAAAGUGGCUGUGGCUAGACUGCCUCUCUGGAUUCCUCGUCACUCAGCAGGGCAUCUCUGAGAGAAAUGCC

Variants of: B1
Assay: self-cleavage, relative activity (ratio to wild type); higher = more cleavage; in vitro, sequencing; the parent is a self-cleaving ribozyme

| Variant | self-cleavage |
| --- | --- |
| UACGCAGGUGGUUCUCCCCUGAUAGUGCUAAGGGGGCCUGGAGGUUUGGACUGGGCAGAGCUCAACACAGCGUGGCAAGGUGGCUGUGGCUAGACUGCCUCUCUGGAUUCCUCGUCACUCAGCAGGGCAUCUCUGAGAGAAAUGCC [U5C U14C A43G A79G] | 1.19 |
| UACGCAGGUGGUUCUCCCCUGAUAGUGCUAAGGGGGCCUGGAAGUUUGGACUGGGCAGUGCUCAACACAGCGUGGCAAAGUGGCUGUGGCUAGACUGCCUCUCUGGAUUCCUCGUCACUCAGCAGGGCAUCUCUGAGAGAAAUGCC [U5C U14C A59U] | 0.67 |
| UACGCAGGUGGUUCUGCCCUGAUAGUGCUAAGGGGUCCUGGAAGUUUGGACUGGGCAGGGCUCAACACAGCGUGGCAAAGUGGCUGUGGCUAGACUGCCUCUCUGGAUUCCUCGUCACUCAGCAGGGCAUCUCUGAGAGAAAUGCC [U5C U14C C16G G36U A59G] | 0.35 |
| UACGCAGGUGGUUCUCCCCUGAUAGUGCUAAGGGGGCCUGGAAGUUUGGACUGGGCAGAGCUCAACACAGCGUGGCAAAGUGGCUGUGGCUAGACUGCCUCUCUGGAUUCCUCGUCACUCAGCAGGGCAUCUCUGAGAGAAAUGCU [U5C U14C C146U] | 1.13 |
| UACGCAGGUGGUUCUCCCCUGAAAGUGCUAAGGGGGCCUGGAAGUUUGGACUGGGCAGAGCUCAACACAGCGUGGCAAAGUGGCUGUGGCUAGACUGCCUCUCUGGAUUCCUCGUCACUCAGCAGGGCAUCUCUGAGAGAAAUGCC [U5C U14C U23A] | 0.83 |
| UACGCAGGUGGUUCUCCCCUGACAGUGCUAAGGGGGCCUGGAAGGUUGGACUGGGCAGAGCUCAACACAGCGUGGCAAAGUGGCUGUGGCUAGACUGCCUCUCUGGAUUCCUCGUCACUCAGCAGGGCAUCUCUGAGAGAAAUGCC [U5C U14C U23C U45G] | 0.99 |
| UACGCAGGUGGUUCUCCCCUGAUAGCGCUAAGGGGGCCCGGAAGUUUGGACUGGGCAGAGCUCAACACAGCGUGGCAAAGUGGCUGUGGCUAGACUGCCUCUCUGGAUUCCUCGUCACUCAGCAGGACAUCUCUGAGGGAAAUGCC [U5C U14C U26C U39C G127A A138G] | 1.06 |
| UACGCAGGUGGUUCUCCCCUGAUAGUGCUAAGGGGGCCUGGAAGUCAGGACUGGGCAGAGCUCAACACAGCGUGGCAAAGUGGCUGUGGCUAGACUGCCUCUCUGGAUUCCUCGUCACUCAGCAGGGCAUCUCUGAGAGAAAUGCC [U5C U14C U46C U47A] | 1.51 |
| UACGCAGGUGGUUCUCCCCUGAUAGUGCUAAGGGGGCCUGGAAGUUCGGACUGGGCAGAGCUCAACACAGCGUGGCAAAGUGGCUAUGGCUAGACUGCCUCUCUGGAUUCCUCGUCACUCAGCAGGGCAUCUCUGAGAGGAAUGCC [U5C U14C U47C G86A A140G] | 0.34 |
| UACGCAGGUGGUUCUCCCCUGAUAGUGCUAAGGGGGCCUGGAAGUUUGGACUGGGCAGAGCUCAACACAGCGUGGCAAAGUGGCUGUGGCUAGACUGCCUCUCUGGAUUCCGCGUCACUCAGCAGGGCAUCUCUGAGAGAAAUGCC [U5C U14C U112G] | 0.77 |
| UACGCAGGUGGUUUACCCCUGGUAGUGCUGAGGGGGCCUGGAAGUUUGGACUGGGCAGAGCUCAACUCAGCGCGGCAAAGUGGCUGUGGCUAGACUGCCUCUCUGGAUUCCUCGUCACUCAGCAGGGCAUCUCUGAGAGAAAUGCC [U5C U15A A22G A30G A67U U73C] | 1.84 |
| UACGCAGGUGGUUUACCCCUGAUAGUGCUAAGGGGGCCUGGAAGUUUGGACUGGGCAGAGCUCAACACAGCGUGGCAAAGUGGCUGUGGCUAGACUGCCUCUCUGGAUUCCUCGUCACUCAGCGGGGCAUCUCUGAAAGAAAUGCC [U5C U15A A124G G137A] | 1.87 |
| UACGCAGGUGGUUUACCCCUGAUAGUGCUAAGGGGGCCUGGAAGUUUGGACUGCGCAGAGCUCGACACAGCGUGGCAAAGUGGCUGUGGCUAGACUGCCUCUCUGGAUUCCUCGUCACUCAGCAGGGCAUCUCUGAGAGAAAUGCC [U5C U15A G54C A64G] | 0.65 |
| UACGCAGGUGGUUUCCCCCUGAUAGUGCUAAGGGGGCCUAGGAGUUUGGGCUGGGCAGAGCUCAACACAGCGAGGCAAAGUGGCUGUGGCUAGACUGCCUCUCUGGAUUCCUCGUCACUCAGCAGGGCAUCUCUGAGAGAAAUGCC [U5C U15C G40A A42G A50G U73A] | 2.12 |
| UACGCAGGUGGUUUCCCCCUGAGAGUGCUAAGGGGGCCUGGAAGUUUGGACUGGGCAGAGCUCAACACAGCGUGGCAAAGUAGCUGUGGCUAGACUGCCUCUCUGGAUUUCUCGUCACUCAGCAGGGCAUCCCUGAGAGAAAUGCC [U5C U15C U23G G82A C110U U132C] | 0.73 |
| UACGCAGGUGGUUUCCCCCUGAUAGUGCUAAGGGGGCCUGGAAGUAUGGACUGGGCAGAGCUCAACACAGCGUGGCAAAGUGGCUGUGGCUAGACUGCCUCUCUGGAUUCCUCGUCACUCAGCAGGGCAUCUCUGAGAGAAAUGCC [U5C U15C U46A] | 0.35 |
| UACGCAGGUGGUUUCCCCCUGAUAGUGCUAAGGGGGCCUGGAAGUUUGGACUGGGCAGAGCUCAACACAGCGUGGCAAAGUGGCUGUGGCUAGACUGCCUCUCUGGAUUCCUCGCCACUCAGCAGGGCAUCUCUGAGAGAAAUGCC [U5C U15C U115C] | 0.4 |
| UACGCAGGUGGUUUGCCCCUGAUAGUGCUAAGGGGGCCUGGAAGUUUGGACUGGGCAGAGCUCAACACAGCGUGGCAAAGUGGCUGUGGCUAGGCUGCCUCUCUGGAUUCCUCGUCACUCAGCAGGGCAUCUCUGAGGGAAAUGCC [U5C U15G A94G A138G] | 1.31 |
| UACGCAGGUGGUUUUCCCCAGAUAGUGCUAAGGGGGCCUGGAAGUUUGGACCGGGCAGAGCUCAACACAGCGAGGCAAAGUGGCUGUGGCUAGACUGCCUCUCAGGAUUCCUCGUCACUCAGCAGGGCAUCUCUGAGAGAAAUGCC [U5C U20A U52C U73A U104A] | 0.77 |
| UACGCAGGUGGUUUUCCCCCGAUAGUGCUAAGGGGGCCUGGAGGUUUGGACUGGGCAGAGCUCAACACAGCGUGGCAAAGUAGCUGUGGCUAGACUGCCUCUCUGGAUUCCUCGUCACUCAGCAGGGCAUCUCUGAGAGAAAUGCC [U5C U20C A43G G82A] | 1.23 |

| Variant | self-cleavage |
| --- | --- |
| UACGCAGGUGGUUUUCCCCCGAUAGUGCUAAGGGGGCCUGGAAGUUUGGACUGGGUAGAGCUCAACACAGCGUGGCAAAGUGGCUGUGGCUAGACUGCCUCUCUGGAUUCCUCGUCACUCAGCAGGGCAUCUCUGAGAGAAAUGCC [U5C U20C C56U] | 0.3 |
| UACGCAGGUGGUUUUCCCCCGAUAGUGCUAAGGGGGCCUGGAAGUAUGGACUGGGCAGAGCUCAACACAGCGUGGCAAAGUGGCUGUGGCUAGACUGCCUCUCUGGAUUCCUCGUCACUCAGCAGGGCAUCUCUGAGGGAAAUGCC [U5C U20C U46A A138G] | 1.35 |
| UACGCAGGUGGUUUUCCCCCGAUAGUGCUAAGGGGGCCUGGAAGUUUGGACUGGGCAGAGCUCAACACAGCGUGGCAAAGUGGCUGUGGCUAGACUGCCUCCCUGGAUUCCUCGUCACUCAGCAGGGCAUCUCUGAGAGAAAUGCC [U5C U20C U102C] | 1.02 |
| UACGCAGGUGGUUUUCCCCGGAUAGUGCUAAGGGGGCCUGGAAGUUUGGACUGGGCAGAGCUCAACACAGCGUGGCAAAGUGGCUGUGGCUAGACUGCCUCUCUGGAUUCCUCGCCACUCAGCAGGGCAUCUCUGAGAGAAAUGCC [U5C U20G U115C] | 0.35 |
| UACGCAGGUGGUUUUCCCCUGAAAGUGCUAAGGGGGCCUGGAUGUUUGGACUGGGCAGAGCUCAACACAGCGUGGCAAAGUGGCUGUGGCUAGACUGCCUCUCAGGAUUCCUCGUCACUCAGCAGGGCUUCUCUGAGAGAAAUGCC [U5C U23A A43U U104A A129U] | 1.41 |
| UACGCAGGUGGUUUUCCCCUGAAAGUGCUAAGGGGGCCUGGAAGUUUGGACUGGGCAGAGCUCAACACAGCGUGGCAAAGUGGCUGUGGCUAGACUGCCUCUCUGGAUUCCUCGUCACCCAGCAGGGCAUCUCUGAGAGAAGUGCC [U5C U23A U119C A142G] | 1.43 |
| UACGCAGGUGGUUUUCCCCUGAUAGAGCUAAGGGGGCCUGGAAGUUAGGACUGGGCAGAGCACAACACAGCGUGGCAAAGUGGCUGUGGCUAGACUGCCUCUCUGGAUUCCUCGUCACUCAGCUGGGCAUCUCUGAGAGAAAUGCC [U5C U26A U47A U62A A124U] | 0.07 |
| UACGCAGGUGGUUUUCCCCUGAUAGCGCUAAGGGGGCCUGGAAGUUUGGACAGGGCAGAGCUCAACACAGCGUGGCAACGUGGCUGUGGCUAGACUGCCUCUCUGGAUUCCUCGUCACUCAGCAGGGCAUCUCUGAGAGAAAUGCC [U5C U26C U52A A79C] | 0.97 |
| UACGCAGGUGGUUUUCCCCUGAUAGCGCUAAGGGGGCCUGGAAGUUUGGACUGGGCAGAGCUCAACACAGCGUGGCAAAGUGGCUGUGGCUAGACUGCCCCUCUGGAUUCCUCGUCACUCAGCAGGGCAUCUCUGAGAGAAAUGCC [U5C U26C U100C] | 1.02 |
| UACGCAGGUGGUUUUCCCCUGAUAGGGCUAAGGGGGCCUGGAAGUUUGGACUGGGCAGAGCUCAACACAGCGUGGCGAAGUGGUUGUGGCUAGACUGCCUCUCUGGAUUCCUCGUCACUCAGCAGGGCAUCUCUGAGAGAAAUGCC [U5C U26G A77G C84U] | 0.3 |
| UACGCAGGUGGUUUUCCCCUGAUAGUGCCAAGGGGGCCUGGAAGUUUGGACUGGGCAGAGCUCAACACGGCGUGGCAAAGUGGCUGUGGCUAGACUGCCUCUCUGGAUUCCUCGUCACUCAGCAGGGCAUCUCUGAGAGAAAUGCC [U5C U29C A69G] | 0 |
| UACGCAGGUGGUUUUCCCCUGAUAGUGCCAAGGGGGCCUGGAAGUUUGGACUGGGCAGAGCUCAACACAGCGUGGCAAAGUGGCUGUGGCUAGACUGCCUCUCUGGAUUCCUCGUCACUCAGCAGGGCAUCUCUGAGAGAAAUACU [U5C U29C G144A C146U] | 0.53 |
| UACGCAGGUGGUUUUCCCCUGAUAGUGCUAAGGGGGCCAGGAAGUUUGGACUGGGCUGAGCUCAACACAGCGCGGCAAAGUGGCUGUGGCUAGACUGCCUCUCUGGAUUCCUCGUCACUCAGCAGGGCAUCUCAGAGAGAAAUGCC [U5C U39A A57U U73C U134A] | 0.53 |
| UACGCAGGUGGUUUUCCCCUGAUAGUGCUAAGGGGGCCAGGAAGUUUGGACUGGGCAGAGCUCAACACAGCGUGGCAAAGUGGCUGUGGCUAGACUGCCUCUCUGGUUUCCUCGUCACUCAGCAGGGCAUCUCUGAGAGAAAUGCC [U5C U39A A107U] | 0.25 |
| UACGCAGGUGGUUUUCCCCUGAUAGUGCUAAGGGGGCCAGGAAGUUUGGACUAGGCAGAGCUCAACACAGCGUGGCAAAGUGGCUGUGGCUAGACUGCCUCUCUGGAUUCCUCGUCACCCAGCAGGGCAUCUCUGAGAGAAAUGCC [U5C U39A G53A U119C] | 0.83 |
| UACGCAGGUGGUUUUCCCCUGAUAGUGCUAAGGGGGCCCGGAAGUUUGGACUGGGCAGAGCUCAACACAGCGUGGCAAAGUGGCUGUGGCUAGACUGCCUCUCUGGAUUCCUCGUCACUCAGCAGGGCAUCCCUGAGAGAAAUGCC [U5C U39C U132C] | 1.31 |
| UACGCAGGUGGUUUUCCCCUGAUAGUGCUAAGGGGGCCUGGAAGCUUGGACUGGGCAGAGCUCAUCACAGCGUGGCAAAGUGGCUGUGGCUAGACUGCCUCUCUGGAUUCCCCGUCACUCAGCAGGGCAUCUCUGAGAGGAAUGCC [U5C U45C A65U U112C A140G] | 0.35 |
| UACGCAGGUGGUUUUCCCCUGAUAGUGCUAAGGGGGCCUGGAAGCUUGGACUGGGCAGAGCUCAACACAGCGUGGCAAAGUGGCUGUGGCUAGACUGCCUCUCUGGAUUCCUCGUCACUCAGCAGGGCAUCUCUGUGAGAAGUGCC [U5C U45C A136U A142G] | 1.5 |
| UACGCAGGUGGUUUUCCCCUGAUAGUGCUAAGGGGGCCUGGAAGCUUGCGCUGGGCAGAGCUCAACACAGCGUGGCAGAGUGGCUGUGGCUAGACUGCCUCUCUGGAUUCCUCGUCACUCAGCAGGGCAUCUCUGAGAGAAAUGCC [U5C U45C G49C A50G A78G] | 1.84 |
